Experimental data reported in article PMC8304084, “A Concerted Action of UBA5 C-Terminal Unstructured Regions Is Important for Transfer of Activated UFM1 to UFC1” (International Journal of Molecular Sciences, 2021).

Tests used:
Test in all cases: ITC; VP-ITC, 25 °C; UBA5 peptides (~400 µM) titrated into 20–25 µM binding partner; 25 mM HEPES pH 7.5, 100 mM NaCl; one-site model; a single profile for each interaction
Details in all cases: both partners purified
[1] = biological target: T1, Full length UFM1, residues 2–83 (UniProt P61960)
T1 construct: N-terminal cloning artefact left after TEV cleavage (vector pET39_Ub19); UFM1 (ubiquitin fold modifier 1), residues 2–83 (processed form ending at Gly83); also called Ubiquitin fold modifier 1; source: E. coli T7 Express, purified (His Trap IMAC, TEV cleavage, reverse IMAC, Superdex gel filtration); not shown: modified ubiquitin tag (Ub19), N-terminal, cleaved

[2] = biological target: T2, GABARAPL2, residues 3–116 (UniProt P60520)
T2 construct: N-terminal cloning artefact left after TEV cleavage (vector pET39_Ub19); source: E. coli T7 Express, purified (His Trap IMAC, TEV cleavage, reverse IMAC, Superdex gel filtration); not shown: modified ubiquitin tag (Ub19), N-terminal, cleaved

[3] = biological target: LC3B, residues 5–120 (UniProt Q9GZQ8)

T2 sequence (P60520 other isoform, or with tags, fused parts or gaps): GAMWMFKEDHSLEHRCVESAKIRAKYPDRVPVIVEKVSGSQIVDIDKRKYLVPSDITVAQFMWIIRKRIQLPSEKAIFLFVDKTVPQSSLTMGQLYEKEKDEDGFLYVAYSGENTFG
T1 sequence (P61960 other isoform, or with tags, fused parts or gaps): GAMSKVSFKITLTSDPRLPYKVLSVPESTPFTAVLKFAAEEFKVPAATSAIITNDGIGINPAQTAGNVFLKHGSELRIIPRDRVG

B1: UBA5 C-terminal part with A371E mutant ([…]) (domain or fragment)
chain: not shown
notes: N-terminal cloning artefact left after TEV cleavage (vector pET39_Ub19); source: E. coli T7 Express, purified (His Trap IMAC, TEV cleavage, reverse IMAC, Superdex gel filtration); not shown: modified ubiquitin tag (Ub19), N-terminal, cleaved
Which results are given for B1?
Ka [1]: 110000 M⁻¹; Kd [1]: 9200 nM; dH [1]: -11.4 kcal/mol; stoichiometry N [1]: 1.01; Ka [2]: 1.96e+07 M⁻¹; Kd [2]: 60 nM; dH [2]: -7.79 kcal/mol; stoichiometry N [2]: 1.01; Ka [3]: 1.66e+06 M⁻¹; Kd [3]: 600 nM; dH [3]: -3.93 kcal/mol; stoichiometry N [3]: 0.944
